# Reference: PubChem BioAssay (NCATS)
# The shares of active, inactive and inconclusive entries below differ from those in the screen. No potency is given beside an inconclusive call; the fits are too rough. More than one record can exist for a structure, and the calls need not agree. Calls of active or inactive are those of the source. Calls come from the whole dose curve; as a rule, active = well fitted cell-killing curve with a large enough effect; inconclusive = small, poorly fitted or top-dose-only effect, or effect the other way; inactive = no such curve, though single readings can be large or run the other way.
# Test: Viability qHTS for spleen associated tyrosine kinase inhibitor (SYKi) drug resistant MV4-11 cells (AID 1963824); note: nearly all actives have a fitted effect of over 35% in size
# Details: SYKi-resistant MV4-11 viability, CellTiter-Glo, 72 h; series mostly up to 45 µM; viability, % of control: at the top concentration
# Summary of the method: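 CellTiter-Glo luminescence, read 10 min after reagent addition, reports viability after a 72 hr compound exposure. Cells are an MV4-11 line made resistant to SYK inhibition, seeded at 500 per well onto compound-containing plates.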
# Potency is the fitted concentration of half-maximal effect; tags give direction and shape of the fitted curve.
Structure (SMILES),Potency,"viability, % of control"
CCOc1ccccc1C(N)=O,active: 9.44 µM,–
COC(=O)C[C@H]1[C@]2(C)C3=C(C)[C@H](c4ccoc4)C[C@H]3O[C@@H]2[C@H](O)C2[C@](C)(C(=O)OC)C=CC(=O)[C@@]21C (stereo not given in full),"inconclusive [cytotoxic, partial curve, poor fit]",–
C=C1CC[C@H]2C(=C)CC[C@H]3C(=C)C(=O)O[C@@H]3[C@@H]12,"inconclusive [cytotoxic, full curve, poor fit]",–
CCCCC(CC)COC(=O)c1ccc(N(C)C)cc1 (stereo not given),"inconclusive [cytotoxic, full curve, poor fit]",–
C=C1CCC(OC(C)=O)C2(C)CC3OC(=O)C(C)=C3CC12 (stereo not given),"inconclusive [cytotoxic, partial curve, poor fit]",–
O=C(O)c1ccccc1NCCc1ccccc1,–,inactive: 54.8%
CC1(C)CCCC2(C)C1CC(=O)C13CC(CCC12)C(O)(CO)C3 (stereo not given),"inconclusive [cytotoxic, full curve]",–
Cc1cccc(-c2nn3c(c2-c2ccnc4ccc(C(N)=O)cc24)CCC3)n1,"inconclusive [cytotoxic, partial curve]",–
C=C1C2(C)CC3C4(C)C=CC(=O)OC(C)(C)C4CCC3(C)C1(C(=O)OC)C(=O)C(C)(O)C2=O (stereo not given),active: 0.224 µM,–
COc1ccnc2c1CCCCC2S(=O)c1nc2ccccc2[nH]1 (stereo not given),"inconclusive [cytotoxic, partial curve]",–
CC(=O)CCC1=C(C)C(O[C@@H]2O[C@H](CO)[C@@H](O)[C@H](O)[C@H]2O)C(O)CC1(C)C (stereo not given in full),–,inactive: 85.5%
CC[C@@H](c1ccc(F)c(F)c1)n1c(C(=O)OC)c(-c2ccno2)[nH]c1=S,"inconclusive [cytotoxic, single point]",–
O=C(O)Cn1cnnn1,–,inactive: 85%
O=C(CCCl)NCc1ccccc1,–,inactive: 98.3%
COc1ccc2c(c1O[C@H]1CCNC1)CCC2,–,inactive: 70.4%
CCCCNc1nc(N)c2[nH]c(=O)n(Cc3ccc(OCCN(C)C)nc3)c2n1,"inconclusive [cytotoxic, single point]",–
CN(C)CCN(Cc1ccc(-c2ccc(CNCCc3ccccc3)cc2)cc1)C(=O)CCC1CCCC1,active: 0.92 µM,–
Nc1ncnc2c1ncn2[C@H]1O[C@H](CO)[C@@H](O)[C@@H]1O,"inconclusive [rising, full curve, poor fit]",–
Clc1cccc(C(c2ccc3nc[nH]c3c2)n2ccnc2)c1 (stereo not given),–,inactive: 69.4%
CC(=O)O[C@@H]1c2c(C)coc2C(=O)[C@@]23O[C@@H]2CC[C@H](C)[C@@]13C,"inconclusive [cytotoxic, single point]",–

Structure (SMILES),Potency,"viability, % of control"
COc1cc(C2Oc3c(OC)cc(CCCO)cc3C2CO)ccc1O (stereo not given),"inconclusive [cytotoxic, single point]",–
O=C1OC(c2ccc(O)cc2)C(O)=C1Cc1ccccc1 (stereo not given),"inconclusive [cytotoxic, partial curve]",–
CN(C)[C@@H]1C(=O)C(C(=O)NCN2CCCC2)=C(O)[C@@]2(O)C(=O)C3=C(O)c4c(O)cccc4[C@@](C)(O)C3C[C@@H]12 (stereo not given in full),–,inactive: 82.4%
CCc1cc2c(cc1CC)CC(NCC(O)c1ccc(O)c3[nH]c(=O)ccc13)C2 (stereo not given),active: 13 µM,–
O=C(NCc1ccccn1)Nc1nnc(-c2ccco2)o1,–,inactive: 88.9%
Cc1nc2cccc(N)c2c(=O)n1C1CCC(=O)NC1=O (stereo not given),–,inactive: 91.9%
CC1CCC2C(C(=O)O)=CC3CC(C)(C)CC132 (stereo not given),"inconclusive [cytotoxic, partial curve, poor fit]",–
CC(C)CC(=O)OC[C@H]1O[C@@](COC(=O)CC(C)C)(O[C@H]2O[C@H](CO)[C@@H](O)[C@H](O)[C@H]2O)[C@@H](OC(=O)CC(C)C)[C@@H]1OC(=O)CC(C)C,"inconclusive [cytotoxic, partial curve, poor fit]",–
NS(=O)(=O)c1ccc(NC(=O)Nc2ccc(F)cc2)cc1,"inconclusive [cytotoxic, single point]",–
CCN(CCNC(=O)Nc1ccccc1Br)c1cccc(C)c1,"inconclusive [cytotoxic, partial curve]",–
CC(=O)N[C@H]1[C@H](O[C@H]2CC[C@]3(C)C4CC=C5[C@@H]6CC(C)(C)CC[C@]6(C(=O)O)[C@H](O)C[C@@]5(C)[C@]4(C)CC[C@H]3C2(C)C)O[C@H](CO)[C@@H](O)[C@@H]1O (stereo not given in full),"inconclusive [cytotoxic, partial curve]",–
CCN(CC)CCNC(=O)c1ccc(N)cc1,inactive,–
O=C1NC(Nc2ccccc2)=N/C1=C\c1ccc2c(c1)OCO2,"inconclusive [cytotoxic, partial curve]",–
CC1=CC[C@@]2(C)CC[C@@](O)(C(C)C)[C@@H]2[C@@H](O)C1,"inconclusive [cytotoxic, partial curve, poor fit]",–
O=C(/C=C/c1ccc(O)cc1)OCC1=CC2OC(=O)C3=CO[C@@H](O[C@@H]4O[C@H](CO)[C@@H](O)[C@H](O)[C@H]4O)[C@H]1[C@@H]32 (stereo not given in full),"inconclusive [cytotoxic, single point]",–
C[C@H]1[C@H](C)CC[C@]2(C(=O)O)CC[C@]3(C)C(=CCC4[C@@]5(C)C[C@@H](O)[C@H](O)C(C)(C)C5CC[C@]43C)[C@H]12 (stereo not given in full),–,inactive: 54.8% [at 17.3 µM]
CC(=O)OC1C(O)CC2(C)C(CCC(C)C23Cc2c(O)cc(CO)c(C=O)c2O3)C1(C)C (stereo not given),active: 11.2 µM,–
COC(=O)C1(C)CCC2(C(=O)O)CCC3(C)C(=CCC4C5(C)CC(O)C(OC6OCC(O)C(O)C6O)C(C)(CO)C5CCC43C)C2C1 (stereo not given),"inconclusive [rising, full curve, poor fit]",–
O=C(O)Cc1cccc2ccccc12,"inconclusive [cytotoxic, single point] and inactive",–
CC1(C)CC[C@]2(C(=O)O)CC[C@]3(C)C(=CCC4[C@@]5(C)CCC(O[C@@H]6OC[C@H](O)[C@H](O)[C@H]6O[C@@H]6O[C@H](CO)[C@@H](O)[C@H](O)[C@H]6O)[C@@](C)(CO)C5CC[C@]43C)[C@@H]2C1 (stereo not given in full),"inconclusive [cytotoxic, single point]",–
